# Reference: the BET-seq Pho4 binding data (Le et al. 2018)
# The other results are listed elsewhere or left out. These are noisy estimates, calculated here from bound and input reads.
# Biological target: T1, Pho4 (S. cerevisiae) (UniProt P07270)
# T1 sequence: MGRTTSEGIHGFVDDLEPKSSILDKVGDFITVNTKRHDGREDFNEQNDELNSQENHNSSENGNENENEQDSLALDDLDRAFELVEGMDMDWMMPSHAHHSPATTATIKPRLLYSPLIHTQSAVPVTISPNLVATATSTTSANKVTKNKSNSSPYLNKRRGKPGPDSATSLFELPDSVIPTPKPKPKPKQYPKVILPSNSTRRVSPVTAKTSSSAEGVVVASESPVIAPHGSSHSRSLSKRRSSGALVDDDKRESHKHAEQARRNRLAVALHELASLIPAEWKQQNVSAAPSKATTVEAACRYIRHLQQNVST
# Assay: relative binding free energy (BET-seq); higher = weaker binding
# Settings: reference: library average
row,Sequence,relative binding free energy [kcal/mol]
1,GGTGTCACGTGGGGGT,0.05
2,GAAATCACGTGTTGGT,0.17
3,GGGTTCACGTGGCGTC,0.29
4,TTTTTCACGTGCGTCA,0.18
5,GTAGTCACGTGAAGGA,0.24
6,TATGCCACGTGTGGGC,-0.05
7,TGTTCCACGTGTTCGG,-0.07
8,GTGCGCACGTGATGTG,-0.07
9,GTTTGCACGTGGCGTT,0
10,TTATGCACGTGGTCCG,-0.09
11,GGGGACACGTGGGGCG,-0.2
12,GGCGGCACGTGGCGTT,-0.12
13,ATGGACACGTGAGCTT,0.29
14,TAGATCACGTGGTGTC,0.14
15,TGTTCCACGTGTGGTC,0.16
16,TGTTACACGTGAACTT,0.33
17,GGGTTCACGTGTCAAA,0.41
18,TCGGGCACGTGGCGGC,-0.24
19,AGGTGCACGTGATGAG,0.06
20,GCGGGCACGTGTGAGC,-0.01
21,GTGCACACGTGGCGTG,-0.17
22,TGAGTCACGTGAGGCT,0.23
23,TTCGTCACGTGGAAAG,0.07
24,TAGGTCACGTGGGGGC,-0.04
25,TTCCGCACGTGGGGGG,-0.26
26,AATTGCACGTGATATG,0.03

row,Sequence,relative binding free energy [kcal/mol]
1,GGATTCACGTGTAAGT,0.42
2,AGGGTCACGTGCGTTG,0.07
3,AGGCTCACGTGTGAAT,0.33
4,AAATACACGTGTGTGA,0.12
5,GTGGGCACGTGCAATT,-0.1
6,AGGTGCACGTGATAGT,0.03
7,AGTTTCACGTGCGCGG,0.04
8,ACGTGCACGTGCTGTT,0
9,TTGTTCACGTGAGGTT,0.5
10,CGGGGCACGTGCAGTT,0.03
11,ATGTACACGTGGGCTA,-0.25
12,TAGGGCACGTGTCCTG,-0.23
13,TGATTCACGTGTCTCT,0.35
14,TTGTTCACGTGTTCCG,0.43
15,TCGTTCACGTGTTAGA,0.21
16,AGCTGCACGTGTTTAG,0.15
17,ACTTTCACGTGGTTGA,0.2
18,TTTTCCACGTGAGGTG,0.27
19,GGCTACACGTGGTTTA,0.15
20,TGTCACACGTGTTAAT,0.19
21,AGAGCCACGTGTTGGT,-0.04
22,GGGCTCACGTGTGGTC,0.17
23,TATAGCACGTGATATG,0.1
24,GGTTACACGTGGGTGT,0.08
25,ACTTTCACGTGTTTGT,0.2
26,ATGGACACGTGTTAGT,0.01

row,Sequence,relative binding free energy [kcal/mol]
1,ACGTGCACGTGGGCAG,-0.17
2,CTTGGCACGTGGACGT,-0.17
3,TGTATCACGTGTCGCT,0.11
4,GAGAGCACGTGCGTTG,-0.12
5,AGTGTCACGTGTCGAA,0.15
6,TGGATCACGTGGGTCT,-0.01
7,TGTTGCACGTGCTTAA,0
8,TATGTCACGTGCGATG,0.08
9,CTTGACACGTGTAAGG,0.06
10,TTTGCCACGTGTATAG,-0.03
11,TCGGTCACGTGTAGGA,0.11
12,GTTCACACGTGTTTTG,0.13
13,ATGGGCACGTGAAAAG,0.21
14,TTGTGCACGTGGAACT,-0.08
15,TATTGCACGTGGTTCA,-0.12
16,TTATTCACGTGGGATA,0.16
17,GAGGTCACGTGTTGAG,0.19
18,GTCATCACGTGATGAG,0.46
19,AGTACCACGTGAGGGT,0.09
20,TAAAACACGTGGTTGT,-0.18
21,TGGAACACGTGTTATT,0.06
22,ACGGGCACGTGAAAGG,0.14
23,TATTGCACGTGTATGG,-0.01
24,AGGTGCACGTGATCAG,-0.12
25,GTTGTCACGTGTTAGT,0.25
26,TGAACCACGTGTGGGT,0.16

row,Sequence,relative binding free energy [kcal/mol]
1,TTCGTCACGTGCGGTT,0.2
2,CTTTTCACGTGGATGT,0.26
3,GATGTCACGTGGGAGC,0.02
4,TGTCTCACGTGAGGTG,0.39
5,GGCAGCACGTGTGTGT,-0.1
6,CGGATCACGTGTGTTT,0.25
7,AGACGCACGTGTGAGT,0
8,ATACGCACGTGGCGTG,-0.19
9,TGGGGCACGTGAGTCT,0.05
10,AGCGACACGTGAGGGT,0.26
11,TGCTACACGTGGTTTG,0.01
12,GGGTGCACGTGGATAA,-0.03
13,AGTGGCACGTGGCTAG,-0.03
14,TTATGCACGTGTAGGG,0.03
15,TGTTGCACGTGGTGAG,0.07
16,TGAGACACGTGGGCTT,-0.12
17,TTAGCCACGTGAGTGT,0.07
18,TCTTACACGTGGTGCG,0.12
19,TAATACACGTGAATTG,0.13
20,TTGGTCACGTGTTCAG,0.19
21,TTAACCACGTGGGGAG,-0.13
22,AAGGTCACGTGAGGTA,0.24
23,AATTTCACGTGTAATA,0.22
24,CGTGGCACGTGAATAT,0.21
25,GGTTACACGTGGGCAA,-0.02
26,GCTGTCACGTGTTGGA,0.12

row,Sequence,relative binding free energy [kcal/mol]
1,AGTTTCACGTGCTGGA,0.29
2,GTTGTCACGTGAGAAG,0.43
3,GTGGGCACGTGAGACA,0.06
4,TTTTGCACGTGAGTAC,0.27
5,TAAAACACGTGAGGAT,0.39
6,GTTATCACGTGACAGG,0.21
7,ATGCACACGTGAGTGT,0.2
8,GAGTGCACGTGGGAGG,0.01
9,TAGAGCACGTGGTGAT,-0.18
10,ATGTTCACGTGAAGAG,0.37
11,TGAGTCACGTGCGAGG,-0.07
12,TTGACCACGTGTTTGA,0.11
13,CGGGACACGTGGGCGG,-0.1
14,CTGTGCACGTGTTAAT,-0.12
15,TACTGCACGTGGGGGC,-0.24
16,CGTCTCACGTGTTTGG,0.32
17,TGTGACACGTGTGGAA,0.02
18,TTGTTCACGTGACTGA,0.34
19,CGTTGCACGTGGATGA,-0.03
20,AGGATCACGTGGTATA,-0.05
21,TCAGTCACGTGGGTTT,-0.04
22,TCATTCACGTGACGTG,0.46
23,TAGCTCACGTGGATGT,0.23
24,ATTGGCACGTGAGAAA,0.22
25,TGCAACACGTGTCGGG,0.01
26,GAGTACACGTGTAAGT,0.11

row,Sequence,relative binding free energy [kcal/mol]
1,GAGGTCACGTGGAATG,0.33
2,GAGGGCACGTGCATGT,-0.31
3,TCCGGCACGTGTGGGC,0.08
4,ACATTCACGTGGGCGG,0.17
5,TTAGACACGTGATTGA,0.14
6,TTGTTCACGTGAGTGG,0.42
7,GGGGTCACGTGGGCAC,0.07
8,CTGTGCACGTGTCTGT,0.01
9,ATATTCACGTGGGTTC,0.1
10,AGCTTCACGTGGGGTA,0.05
11,GTTCGCACGTGTATAG,0.08
12,TTGCTCACGTGAGGTG,0.46
13,ATTTTCACGTGAAAAG,0.28
14,CTGGTCACGTGAAATG,0.51
15,AGAGGCACGTGCGATG,-0.26
16,GTGGACACGTGGATAG,0.07
17,ACGGGCACGTGGCGAT,0.01
18,TTCATCACGTGTATGG,0.1
19,AAAGTCACGTGATGGT,0.18
20,GTCCGCACGTGTGTGT,-0.07
21,TTTGTCACGTGGCCTT,-0.09
22,AAGGGCACGTGGTGAA,-0.2
23,TTGTACACGTGATCGG,0.19
24,TGTGACACGTGATTTC,0.18
25,TTGGGCACGTGGTATA,-0.13
26,CGGTGCACGTGAGGTT,0.22

row,Sequence,relative binding free energy [kcal/mol]
1,AAGGGCACGTGGGGCA,-0.3
2,GAGGTCACGTGGTAAG,0.12
3,TGGGACACGTGTAGAA,0.07
4,CGTATCACGTGTTTTT,0.26
5,TTGGGCACGTGGGTGC,-0.15
6,AGGCACACGTGGAGGT,-0.15
7,TGTGGCACGTGTATTA,-0.11
8,ATTTTCACGTGCTGTA,0.17
9,GGGTGCACGTGTGAGC,0.17
10,GTTTTCACGTGGTTCA,0.16
11,GGGCCCACGTGTGGAT,0.09
12,TGTAGCACGTGTTAGG,-0.08
13,ATGTGCACGTGTATAT,-0.17
14,AAGGGCACGTGATTGG,0.07
15,GAGATCACGTGCAGGG,0.14
16,TGTTACACGTGAATGA,0.42
17,GCCTGCACGTGTGTGG,0
18,CAGGGCACGTGCAGGT,-0.21
19,AGATTCACGTGAAGTT,0.19
20,GGGGCCACGTGGTGAG,-0.14
21,GCGGTCACGTGCTAGT,0.19
22,AGGTACACGTGGTACT,-0.06
23,GTAATCACGTGTGAAG,0.3
24,TAGTTCACGTGAGTGG,0.38
25,TGTTTCACGTGTAGTT,0.38
26,CGGTGCACGTGATTGG,0.16

row,Sequence,relative binding free energy [kcal/mol]
1,TGGAGCACGTGAGTAG,0.01
2,GTCTTCACGTGCTTGA,0.39
3,ACGGGCACGTGAGTTG,0.14
4,TTAAGCACGTGGGACT,-0.16
5,GGGTTCACGTGGAGTC,0.41
6,CTTAGCACGTGAAAGG,0.31
7,TAGTACACGTGGTTCA,0.12
8,ATATGCACGTGGAAGT,0
9,GAGGACACGTGGATTT,0.21
10,GGCCTCACGTGTGGCG,0.19
11,AGTAACACGTGATTGA,0.11
12,AGGGTCACGTGCGCGT,-0.13
13,TGGATCACGTGGTATA,0.1
14,GTGCGCACGTGTGTGT,-0.08
15,GGGTTCACGTGGAGAT,0.29
16,CTTGACACGTGGAGAG,0.2
17,GTACGCACGTGGAGGG,-0.17
18,AGTGTCACGTGGAGAG,0.08
19,ATTGGCACGTGTGCTG,-0.07
20,GTGTTCACGTGGTGTG,0.23
21,CACGTCACGTGGTTGT,0.02
22,GGAGACACGTGGCGAG,0
23,TTATACACGTGGTGAA,0.03
24,GTTGGCACGTGTGCCG,-0.06
25,CAATGCACGTGTATTT,0.14
26,GGCGGCACGTGGGCAG,-0.11

row,Sequence,relative binding free energy [kcal/mol]
1,TCGGACACGTGGGATA,0.05
2,TGGATCACGTGCATTT,0.36
3,CATTTCACGTGTATGG,0.3
4,AGGAGCACGTGGAGTT,-0.09
5,TGTTCCACGTGGGTAA,-0.06
6,CGGCGCACGTGATTGG,0.08
7,TGTATCACGTGCGGTG,0.04
8,GGGTGCACGTGTGACG,0.12
9,AGGAGCACGTGTGAGA,-0.01
10,GGAGGCACGTGGCGGC,-0.26
11,TTTGTCACGTGTGGCA,0.18
12,GGGCGCACGTGGGAGG,-0.18
13,TTGGCCACGTGTAGAG,-0.11
14,TTCAGCACGTGTGGGC,0
15,GGGCACACGTGGGTTA,-0.15
16,GGTTACACGTGACGGA,0.27
17,GAATACACGTGCGGGT,0.14
18,TGGCACACGTGTGGTC,0.01
19,GGTCTCACGTGGAAGA,0.32
20,CATTGCACGTGGGGAA,-0.05
21,TGTTACACGTGATGTT,0.28
22,GTGTACACGTGGTAAG,0.08
